According to ChEMBL document CHEMBL1157539, “Thousands of chemical starting points for antimalarial lead identification” (Nature, 2010):
Where “and” joins values, the source holds several entries; their conditions need not be identical. Equal values may be shown once. Over roughly 13,000 compounds, “IFI” has its median near 4; the highest 2% begin near 17. This is one part of the list.

Experiment: GSK_TCMDC: Inhibition Frequency Index (IFI). The number of non-kinase HTS assays where a compound showed > 50 % inhibition, expressed as a percentage of the number of such assays in which the compound was tested (-0 is zero)
Format: functional

SMILES	IFI
CCn1c(-c2nonc2N)nc2c(-c3cccc(Cl)c3)ncc(OCCCNCCc3c[nH]cn3)c21	7.69%
Cc1cc(C)cc(OCC(O)CN(CCN2CCOCC2)C(=O)Nc2ccc(Br)cc2)c1 (stereo unspecified)	2.86%
O=C(N[C@H]1CCN(Cc2ccc(OC3CCN(Cc4ccccc4)CC3)c(Cl)c2)C1)c1ccc(Cl)c(Cl)c1	8%
O=C(Nc1ccc(Cl)cc1)NC1CCN(CCCCCNC(=O)C2CC2c2ccc(Cl)c(Cl)c2)CC1 (stereo unspecified)	10.2%
Cc1nnc(-c2cccc(Nc3ccnc4cc(-c5nccs5)ccc34)c2)o1	7.35%
N#Cc1ccc(C(=O)Nc2ccc(-c3cccc(CN4CCCC4)c3)cc2)cc1	0.98%
CCOC(=O)C(=CNc1ccc(Cc2cnc(N)nc2N)cc1CC)C(=O)OCC	3.62%
COc1ccc(C=NN=c2cc(C)[nH]c3ccccc23)cc1OC	2.84%
COc1cc(C)nc2ccc(NC(=O)COCC(=O)Nc3ccc4nc(C)cc(OC)c4c3)cc12	1.43%
CN1CCN(c2ccc(-c3nc4ccc(OCc5cc(Cl)cc(Cl)c5)c(C(N)=O)c4[nH]3)cc2)CC1	7.58%
CCc1cn(CCCOC)c2ccc(C(=O)N[C@@H](Cc3ccccc3)[C@H](O)CNCc3cccc(C(F)(F)F)c3)cc12	5.19%
COc1cccc(CCc2c(CCNCCCCCCNCCc3ccccc3)ccc(OC)c2OC)c1	14.4%
N/C(=N\c1cccc(Cc2ccccc2)n1)NCc1ccccc1	21%
CN(C)CCCNc1ncnc2c1[nH]c1ccc(Br)cc12	1.52%
N=C1N=C(N)NC2(CCCCC2)N1OCCCOc1cc(Cl)c(Cl)cc1Cl	14.7%
CCCCCC(=O)N1CCOC(CCN2CCC(c3ccccc3)CC2)(c2ccc(Cl)c(Cl)c2)C1 (stereo unspecified)	8.78%
CC(C)(C)Oc1ccc(CC2NC3(C(=O)N(Cc4ccc(C(C)(C)C)cc4)c4ccccc43)C3C(=O)N(c4ccc(Br)cc4)C(=O)C23)cc1 (stereo unspecified)	0.72%
CN1CCN(c2ccc3[nH]c(-c4ccc(Cc5cc(Cl)ccc5OCc5ccccc5)o4)nc3c2)CC1	24.7%
CCn1c(-c2nonc2N)nc2c(Cl)ncc(O[C@H](CCN)c3ccccc3F)c21	23.1%
O=C(Nc1ccc(OC2CCN(Cc3ccsc3)C2)c(Cl)c1)c1ccc2ncccc2c1 (stereo unspecified)	6.35%
CN1CCN(CC(=O)Nc2cccc(-c3cccc(-c4nc5cc(C(F)(F)F)ccc5[nH]4)c3)c2)CC1	3.6%
COc1nc2c(N3CCN(CCNCc4ccc5c(n4)NC(=O)CS5)CC3)ccnc2cc1F	2.4%
COCc1cccc(-c2cc(-c3ccc(S(C)(=O)=O)cc3)cnc2N)c1	-0%

SMILES	IFI
CN(C)CCNc1ncnc2c1[nH]c1ccc(Cl)cc12	-0%
COc1ccccc1CNC(=O)c1cc(Br)cc(N2CCN(c3ccncc3)CC2)c1	9.38%
N#Cc1ccc2c(c1)CN(CC[C@H]1CC[C@H](NC(=O)/C=C/c3c[nH]c4ccccc34)CC1)CC2	0.76% and 3.01%
COc1ccc(-c2nonc2NC(=O)c2ccc(OC(C)C)cc2)cc1OC	3.45%
COCCNCc1ncsc1-c1ccc2c(Nc3cc(O)ccc3C)ccnc2c1	3.55%
Cc1cccc(C(=O)Nc2ccnc(N3CCCN(Cc4cccc(O)c4)CC3)c2)c1	5.26%
CN1CCN(CC(=O)Nc2cccc(-c3cccc(-c4nc5ccccc5[nH]4)c3)c2)CC1	1.8%
CN1CCN(c2ccnc3ccc(NC(=O)Nc4ccc5c(c4)CCC5=O)cc23)CC1	2.05%
O=C(/C=C/c1ccc(Cl)c(Cl)c1)NCCCCCN1CCC(NC(=O)Nc2ccc(F)cc2F)CC1	6.54%
Fc1ccc(-c2cncc(-c3ccc(F)cc3)n2)cc1	-0%
Cn1c(N)c(N=O)c(=O)[nH]c1=O	1.41%
CC(C)c1ccc(CN2CCC(CNC(=O)c3cc(-c4ccccc4F)cs3)C2)cc1 (stereo unspecified)	14.3%
O=C(NCC1CCN(Cc2cccc(C(F)(F)F)c2)C1)c1cc(-c2cccc(Cl)c2)cs1 (stereo unspecified)	1.89%
CCNC(=O)Nc1ccc(N(C)c2ccnc(NC3CC3)n2)cc1	2.97%
COc1cc(CNCCCCCCNCc2cc(OC)c3ccccc3c2OC)c(OC)c2ccccc12	17.3%
O=C(C1CCN(C(c2ccccc2)c2ccc(Cl)c(Cl)c2)CC1)N1CC=CC1 (stereo unspecified)	2.74%
CCOC(=O)c1ccc(NC(=O)NCCCC2CCCN(CCCCCNC(=O)/C=C/c3ccc(Cl)c(Cl)c3)C2)cc1 (stereo unspecified)	8.63%
CC(CO)(CO)NCc1cc2c3ccccc3c(CNC(C)(CO)CO)cc2c2ccccc12	6.67%
Cc1cc(F)ccc1-c1nc(Nc2ccncc2)c2ccn(C)c2n1	2.82%
Clc1ccc(Cl)c2[nH]c(CNCCCNc3nc4ccccc4[nH]3)cc12	4.38%
Cc1ccccc1C1CCN(C2CCC(NC(=O)/C=C/c3cc(F)cc(F)c3)CC2)CC1 (stereo unspecified)	6.56%
O=C(Nc1cccc(-c2nn3ccccc3c2-c2ccnc(Nc3cccc(C(F)(F)F)c3)n2)c1)c1c(F)cccc1F	5.41%
COc1cc2nc(NCCc3ccccc3)nc(NCc3nccs3)c2cc1OC	2.36%

SMILES	IFI
S=C(NCCCCCN1CCC(c2c[nH]c3ccccc23)CC1)Nc1cccc(I)c1	7.69%
O=C(/C=C/c1ccc(Cl)c(Cl)c1)NCCCCCN1CCC(c2n[nH]c(-c3ccccc3)c2Br)CC1	12.9%
COc1ccc2nccc([C@@H](O)CN3CCC(NCc4ccc5sc(=O)[nH]c5c4)CC3)c2c1	2.22%
CN(C)CCNC(=O)c1csc(Nc2ccc(Cl)c(Cl)c2)n1	0.71%
CCC(C)(C)c1ccc(Oc2ccc(NC(=O)Nc3ccc(Cl)c(Cl)c3)cc2)cc1	4.9%
COc1ccc(-c2c3c(=O)n(C)c(=O)n(C)c3c3nnc4ccccc4n23)cc1	1.64%
O=c1cc(NCCCCNCc2cccc(Br)c2)[nH]c2ccccc12	7.46%
Cc1ccc(NC(=O)c2cc(Br)cc(N3CCCN(C)CC3)c2)cc1F	6.45%
Fc1ccc2[nH]c(-c3ccc(-c4ccc(CNCc5ccccc5)cc4)cc3)nc2c1	13.1%
CC(C)C(=O)ONC1=NC(C)(C)N(OCCCOc2cc(Cl)c(Cl)cc2Cl)C(NOC(=O)C(C)C)=N1	3.52%
CN1CCCN(Cc2cccc(-c3ccc(NC(=O)c4ccc(Cl)cc4)cc3)c2)CC1	2.91%
c1cc(CN2CCN(c3ccncc3)CC2)cc(-c2ccc(-c3nc4ccccc4[nH]3)s2)c1	9.52%
CCc1n[nH]c(C(=O)Nc2cccc(N3CCCC3)c2)c1C	8.7%
Cc1ccc2nc(C)cc(N/N=C/c3ccc([N+](=O)[O-])o3)c2c1	5.97%
C[C@H]1CN(Cc2ccc(-c3cccc(CNC(=O)c4cccc(C(=O)c5ccc(Cl)c(Cl)c5)c4)c3)s2)CCN1	16.2%
COc1c(C2CCN(CCCCNC(=O)c3ccc(C)c(-c4ccc(C(F)(F)F)cc4)c3)CC2)ccc2c1CCCC2	9.73%
COc1ccc2[nH]ccc(=NN=Cc3ccncc3)c2c1	0.72%
Cc1csc(-c2nc(NCCc3c(C)noc3C)ncc2-c2ccsc2)n1	4.71%
COc1ccc(-c2cccc(NC(=O)c3ccc(F)cc3)c2)cc1CN1CCCN(C)CC1	10.7%
C=CCOC(=O)N1CCC(CNCc2cccc(-c3cccc(-c4nc5cc(F)ccc5[nH]4)c3)c2)C1 (stereo unspecified)	4.85%
Nc1nc(O)c2cc(CNc3ccc(C(=O)N[C@@H](CCC(=O)O)C(=O)O)cc3)ccc2n1	-0%
CN1CCC(N(Cc2ccc(-c3cnc(NCc4ccccc4)nc3)cc2)S(=O)(=O)c2ccccc2)CC1	15.5%
Cc1cc(C2CCN(CCCCNC(=O)c3ccc(-c4ccc(C(F)(F)F)cc4)cc3)CC2)c(C)cc1OCCOC1CCCCO1 (stereo unspecified)	4.63%

SMILES	IFI
CCOc1c(C)cc(C(F)(F)F)cc1CNCCCNc1cc(=O)c2ccccc2[nH]1	3.5%
COc1ccc2nc(N3CCNCC3)nc(NCCCc3ccccc3)c2c1	3.01%
Cc1ccc(NC(=O)c2ccc(CN3CCCN(CC4CCCCC4)CC3)cc2)cc1F	10.3%
O=C(Nc1ccc2ccccc2c1)N1CCC(NCc2cccc([N+](=O)[O-])c2)CC1	2.17%
O=C(/C=C/c1ccc(Cl)c(Cl)c1)NCCCCCN1CCC(CCNC(=O)/C=C/c2ccccc2F)CC1	6.25%
CCCCCN1CCCC1CNS(=O)(=O)c1cccc(C(=O)Nc2cccc(C(F)(F)F)c2)c1 (stereo unspecified)	3.61%
Cc1ccccc1C1CCN(c2ccc(C(=O)Nc3ccc(F)cc3)cn2)CC1	8.33%
COc1cc(C(F)(F)F)nc2c(CNCCCNc3cc(=O)c4ccccc4[nH]3)scc12	5.15%
C=C1N(C)c2cc([N+](=O)[O-])c(N)cc2C1(C)C	9.2%
O=C(CCCCCNC(=O)c1ccc(O)c(-c2cccc(C(F)(F)F)c2)c1)NCCN1CCCCC1	0.74%
COc1cc(C)c(C(O)CNC(C)CCc2ccccc2)cc1C (stereo unspecified)	2.99%
CC(C)CCOc1ccc(NC(=O)c2cccs2)cc1	6.78%
CC(C)COc1ccc(Cl)cc1Cc1ccc(-c2nc3cc(N4CCN(C)CC4)ccc3[nH]2)o1	17.2%
Cc1cccc2nc(-c3cccc(-c4cccc(NC(=O)c5ccc(C(N)=O)cc5)c4)c3)[nH]c12	5.26%
CCCCOc1ccc(N2C(N)=NC(N)=NC2(C)C)cc1	2.19%
CC(C)=C(C(=O)OCc1ccccc1)N1C(=O)[C@@H](NC(c2ccccc2)(c2ccccc2)c2ccccc2)[C@H]1[S+]([O-])CC(=O)OC(C)(C)C (stereo partly specified)	3.03%
CSC1=NC(=Nc2c(C)cccc2C)C2(CCCCC2)N1c1ccccc1Cl	3.28%
CC(C)n1nc(C(=O)N2CCN(c3ccccc3)CC2)c2ccccc2c1=O	2.94%
O=C(Nc1ccc(-c2ccc(-c3nc4ccccc4[nH]3)s2)cc1)c1ccncc1	0.94%
CC(C)COc1ccc(Cl)cc1Cc1ccc(-c2nc3cnc4ccccc4c3[nH]2)o1	7.23%
Cc1cccc(C)c1N1CCN(C2CCC(NC(=O)/C=C/c3ccccc3)CC2)CC1 (stereo unspecified)	4.55%
OC(CNCc1ccccc1OCc1ccccc1)c1cccc(Cl)c1 (stereo unspecified)	5.51%
